# Several values for one entry are separate records, joined by “and”; a condition that tells them apart may be missing. Equal entries are not always repeated. Out of some 360,000 compounds screened, about 25,000 (6.9%) were called active. Inconclusive results, whose numbers are uncertain, are shown with a selection of clear calls. Calls come from the whole dose curve; as a rule, active = well fitted inhibition curve with a large enough effect; inconclusive = small, poorly fitted or top-dose-only effect; inactive = flat fitted curve, though single readings scatter. A potency beside an inconclusive call is a rough fit, not a confirmed value.
# Target: Luciferin 4-monooxygenase (Photinus pyralis) (UniProt P08659)
# Test: qHTS profiling assay for firefly luciferase inhibitor/activator using purifed enzyme and Km concentrations of substrates (counterscreen for miR-21 project); note: nearly all actives have a fitted effect of over 55% in size
# Details: purified FLuc, luminescence inhibition; series mostly up to 57.5 µM
# Summary of the method: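 Purified P. pyralis luciferase, 10 nM final, with Km-level 10 uM D-luciferin and 10 uM ATP in 50 mM Tris acetate pH 7.5, 10 mM Mg acetate, 0.01% Tween-20, 0.05% BSA; 6-point qHTS titration about 60 µM downward; luminescence read.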
# Potency is the fitted concentration of half-maximal effect; tags give direction and shape of the fitted curve.
# Chain of UniProt P08659 (P08659 whole entry, looked up): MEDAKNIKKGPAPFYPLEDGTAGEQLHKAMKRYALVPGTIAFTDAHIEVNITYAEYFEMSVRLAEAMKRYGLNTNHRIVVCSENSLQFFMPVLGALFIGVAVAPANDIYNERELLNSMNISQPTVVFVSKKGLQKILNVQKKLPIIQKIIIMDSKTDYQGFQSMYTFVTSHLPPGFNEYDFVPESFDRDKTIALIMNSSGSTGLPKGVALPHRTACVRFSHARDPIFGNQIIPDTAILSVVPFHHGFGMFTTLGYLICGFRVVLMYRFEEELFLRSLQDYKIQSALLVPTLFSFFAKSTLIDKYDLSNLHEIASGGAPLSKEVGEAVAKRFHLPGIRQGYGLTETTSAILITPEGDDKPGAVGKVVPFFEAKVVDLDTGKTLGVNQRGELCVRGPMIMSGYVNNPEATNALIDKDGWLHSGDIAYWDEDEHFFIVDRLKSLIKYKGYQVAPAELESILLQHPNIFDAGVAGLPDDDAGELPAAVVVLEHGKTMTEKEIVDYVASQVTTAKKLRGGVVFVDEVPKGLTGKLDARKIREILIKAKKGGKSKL
row,SMILES,Potency
1,COc1ccccc1C(=O)Nc1ccccc1OCc1cc(=O)n2ccccc2n1,"inconclusive: 37.9 µM [inhibitor, single point]"
2,COc1ccccc1Nc1sc(C(=O)c2ccc(C)cc2C)c(N)c1S(=O)(=O)c1ccccc1,inactive
3,O=C(c1cccs1)N(C(=O)c1cccs1)c1ccc(Br)cn1,"inconclusive: 30.1 µM [inhibitor, partial curve, poor fit]"
4,CC(=O)Nc1ccc(-c2csc(NC(=O)Nc3ccccc3)n2)cc1,"inconclusive: 16.9 µM [inhibitor, partial curve]"
5,COc1ccc(C2=COc3ccccc3C(=O)N2)cc1,"inconclusive: 23.9 µM [inhibitor, single point]"
6,COC(=O)c1nn(-c2ccc3c(c2)CCN3C(C)=O)cc1O,active: 0.536 µM
7,Cc1ccc(Cl)cc1NC(=O)COC(=O)C12CC3CC(CC(C3)C1)C2,"inconclusive: 30.1 µM [inhibitor, single point] and inconclusive: 37.9 µM [inhibitor, partial curve, poor fit]"
8,Cc1c(C(=O)N2CCN(Cc3ccc4c(c3)OCO4)CC2)sc2ncnc(N3CCN(c4ccccc4F)CC3)c12,"inconclusive: 23.9 µM [inhibitor, partial curve, poor fit]"
9,O=c1c(-c2ccccc2)n[nH]c2ccccc12,active: 9.53 µM
10,CCOc1ccc(NC(=O)CC2SC(=O)N(c3ccccc3)C2=O)cc1 (centres undefined),"inconclusive: 16.9 µM [inhibitor, partial curve, poor fit]"
11,Cc1cc(C(=O)C(C)Sc2cccc[n+]2[O-])c(C)n1-c1ccc(Cl)cc1 (centres undefined),"inconclusive: 21.3 µM [inhibitor, partial curve]"
12,CC1=C(C(=O)Nc2cccc(Cl)c2C)C2(CCCCCC2)OC1=O,inactive
13,COc1ccc(/C(C)=N/NC(=O)CNC(=O)Cc2ccccc2)c(OC)c1,inactive
14,C=CCC1(C#N)C(SC)=NC2=C(C(=O)CC(C)(C)C2)C1c1ccc(Br)cc1 (centres undefined),inactive
15,Cc1cc(NC(=O)Nc2ccc(Cl)cc2)n(C)n1,"inconclusive: 37.9 µM [inhibitor, partial curve, poor fit]"
16,NNC(=O)CSc1nc(-c2ccccc2)nc2c1CCCC2,"inconclusive: 21.3 µM [inhibitor, partial curve]"
17,COc1ccccc1NC(=O)Cn1c(=O)n(Cc2ccccc2)c(=O)c2c1c1cc(C)ccc1n2C,inactive
18,O=C(COC(=O)c1ccccc1Cc1ccccc1)Nc1ccc(SC(F)F)cc1,active: 6.01 µM
19,N#C/C(=C/c1ccc(O)c(O)c1)c1nc2ccccc2[nH]1,active: 6.75 µM
20,CC(NC(=O)CSc1n[nH]c(-c2ccccc2Cl)n1)c1nc2ccccc2[nH]1 (centres undefined),"inconclusive: 37.9 µM [inhibitor, partial curve, poor fit]"
21,C(=C\c1nc(-c2ccncc2)no1)/c1ccccc1,inactive
22,CCOc1cc(C(=O)NCCc2sc(-c3ccc(F)cc3)nc2C)cc(OCC)c1OCC,inactive
23,CCOc1ccc(NC(=O)c2ccc3[nH]c(C)c(C)c3c2)cc1,active: 13.5 µM

row,SMILES,Potency
1,CCc1ccc(NC(=O)C2CCN(S(=O)(=O)c3ccc4c(c3)N(C(C)=O)CCO4)CC2)cc1,inactive
2,O=C(N/N=C\c1ccc2c(c1)OCO2)c1cncc(Br)c1,"inconclusive: 23.9 µM [inhibitor, single point]"
3,CCN(C(=O)COC(=O)c1ccc(N2C(=O)c3ccccc3C2=O)cc1)C1CCS(=O)(=O)C1 (centres undefined),inactive
4,Cc1ccc(S(=O)(=O)Nc2cccc(-c3cn4cccc(C)c4n3)c2)c(C)c1,"inconclusive: 13.5 µM [inhibitor, partial curve]"
5,Cc1ccc(NC2Sc3ccccc3NC2=O)cc1Cl (centres undefined),active: 19 µM
6,O=C(Cn1c(SCc2ccccc2F)nc2ccncc21)Nc1ccccc1C(F)(F)F,"inconclusive: 3.79 µM [inhibitor, partial curve, poor fit]"
7,CCn1c(COc2ccc(Cl)cc2)nnc1SCc1nc2ccccc2[nH]1,inactive
8,CCCSc1nnc(NC(=O)c2sc3nc(-c4cccs4)ccc3c2N)s1,"inconclusive: 37.9 µM [inhibitor, single point]"
9,CC1CC(NS(=O)(=O)c2cc3c4c(c2)CCN4C(=O)CC3)CC(C)(C)C1 (centres undefined),inactive
10,CCCCSc1nnc(-c2ccc(OC)cc2)n1C,"inconclusive: 37.9 µM [inhibitor, single point]"
11,CCOc1ccc(N(C)S(=O)(=O)c2ccc3c(c2)CCCN3C(C)=O)cc1,"inconclusive: 21.3 µM [inhibitor, partial curve, poor fit]"
12,COc1ccc(NC(=O)CCCc2ccccc2)cc1OC,"inconclusive: 21.3 µM [inhibitor, partial curve]"
13,O=c1[nH]c2ccccc2nc1C(Cl)c1ccccc1 (centres undefined),"inconclusive: 37.9 µM [inhibitor, partial curve, poor fit]"
14,O=C1Oc2ccccc2C(=O)/C1=C/c1ccccc1O,"inconclusive: 37.9 µM [inhibitor, partial curve, poor fit]"
15,O=C(O)c1cc([N+](=O)[O-])c(Nc2cccc3ccccc23)c([N+](=O)[O-])c1,"inconclusive: 23.9 µM [inhibitor, single point]"
16,Cc1nc(CS(=O)(=O)c2ccccn2)sc1C(=O)NNC(=O)c1ccc(Cl)cc1,"inconclusive: 30.1 µM [inhibitor, single point]"
17,CCOC(=O)c1ccc(NC(=O)N2CCc3ccccc32)cc1,active: 1.9 µM
18,COCCCn1c(SCC(=O)Nc2ccc(C(C)=O)cc2)nc2ccccc2c1=O,"inconclusive: 23.9 µM [inhibitor, partial curve]"
19,Cc1cc(C(=O)NC(C)c2ccccc2)c2cc(F)ccc2n1 (centres undefined),inactive
20,Cc1nn(-c2ccc(Cl)c(Cl)c2)c(C)c1C(=O)O,"inconclusive: 37.9 µM [inhibitor, partial curve, poor fit]"
21,CCc1ccccc1NC(=O)CN1CCN(C(=O)CNC(=O)c2ccc(-c3ccccc3)cc2)CC1,"inconclusive: 23.9 µM [inhibitor, partial curve, poor fit]"
22,CC(=O)c1cccc(NC(=O)c2nc(-c3ccccc3)n(-c3ccccc3)n2)c1,"inconclusive: 21.3 µM [inhibitor, partial curve]"
23,CC(C)(C)c1ccc(OCCOCCn2cnc3ccccc3c2=O)cc1,"inconclusive: 37.9 µM [inhibitor, single point]"

row,SMILES,Potency
1,Cc1cc(C)c(NC(=O)CN(C)S(=O)(=O)c2ccc3c(c2)CCC(=O)N3)c(C)c1,inactive
2,CC(C)(C)n1ncc2c(=O)n(CC(=O)c3ccc(Cl)cc3)cnc21,active: 7.57 µM
3,COc1nc(NCCO)nc(Nc2ccccc2F)n1,inactive
4,Cc1ccc(NC(=O)CCS(=O)(=O)c2ccc3c(c2)NC(=O)C(C)S3)nc1 (centres undefined),inactive
5,CCOc1ccc(C(=O)Nc2cccc(-c3nc4cccnc4o3)c2)cc1Cl,"inconclusive: 9.53 µM [inhibitor, partial curve]"
6,CCOc1ccc(NC(=O)CSc2ccc(-c3ccco3)nn2)cc1,"inconclusive: 8.49 µM [inhibitor, partial curve, poor fit]"
7,Cc1cc(C(=O)CN2C(=O)C(=O)N(Cc3ccccc3)C2=O)c(C)n1-c1ccccc1F,active: 19 µM
8,Cc1cc(C)c2c(=O)n(CC(=O)NCCCN3CCN(c4ccccc4F)CC3)sc2n1,"inconclusive: 6.01 µM [inhibitor, partial curve]"
9,COc1cccc(C(=O)O/N=C(\N)c2ccncc2)c1,active: 1.35 µM
10,CC(C)c1ccc(C(=O)CC2(O)C(=O)N(CN3CCOCC3)c3ccccc32)cc1 (centres undefined),"inconclusive: 23.9 µM [inhibitor, partial curve, poor fit]"
11,N#C/C(=C\c1ccc(-c2ccc(C(=O)O)cc2)o1)C(=O)Nc1ccccc1C(=O)O,active: 13.5 µM
12,N#C/C(=C\C1CC=CCC1)c1nc2ccccc2[nH]1 (centres undefined),"inconclusive: 26.9 µM [inhibitor, partial curve]"
13,Cc1nn(CCC(=O)Nc2cc(F)ccc2F)c(=O)c2nn(-c3ccccc3)c(C)c12,inactive
14,Cc1ccc(C(=O)/C=C/c2ccccc2[N+](=O)[O-])cc1,active: 8.49 µM
15,CCS(=O)(=O)N1Cc2ccccc2CC1C(=O)Nc1ccc(F)c(F)c1F (centres undefined),"inconclusive: 37.9 µM [inhibitor, single point]"
16,Cc1ccc(OCCn2cc(/C=C3\C(=O)NN(c4ccccc4)C3=O)c3ccccc32)cc1,"inconclusive: 3.01 µM [inhibitor, partial curve, poor fit]"
17,COc1cc(Nc2nc(SCC(=O)c3ccc(Br)cc3)nc3ccccc23)cc(OC)c1,inactive
18,COc1ccc(-c2cn(-c3ccc(C)cc3)c(S(=O)(=O)CC(=O)Nc3ccc(F)cc3)n2)cc1,"inconclusive: 15.1 µM [inhibitor, partial curve, poor fit]"
19,Cc1cccc(-c2cnn(-c3cccc([N+](=O)[O-])c3)c2N)c1,"inconclusive: 26.9 µM [inhibitor, single point]"
20,COc1ccc(/C=N/NC(=O)c2ccc(N3CCCC3=O)cc2)cc1,"inconclusive: 21.3 µM [inhibitor, partial curve, poor fit]"
21,COc1ccc(O)c(C(=O)CC(=O)c2ccccc2C)c1,"inconclusive: 23.9 µM [inhibitor, single point]"
22,O=S(=O)(NCCCCCCNS(=O)(=O)c1c(F)cccc1F)c1ccc2c(c1)OCCO2,inactive
23,O=C(N/N=C/c1cn(CC(=O)N2CCOCC2)c2ccccc12)c1cccnc1,"inconclusive: 21.3 µM [inhibitor, partial curve, poor fit]"
